Numbering of substitutions follows the chain as printed.
B1: CD98 (CL-huAb104)-TX (conjugate)
heavy: EVQLVESGGGLVQPGGSLRLSCATSGFTFIDYYMSWVRQAPGKGLEWLGFIRNKAYGYTTEYSASVKGRFTISRDNSKSILYLQMNSLKTEDTAVYYCTRDRPAWFVYWGQGTLVTVSSASTKGPSVFPLAPSSKSTSGGTAALGCLVKDYFPEPVTVSWNSGALTSGVHTFPAVLQSSGLYSLSSVVTVPSSSLGTQTYICNVNHKPSNTKVDKKV[omitted - human IgG1 Fc with changes]
light: DIVMTQTPLSLPVTPGEPASISCKSSQSLLYSSNQKNYLAWYLQKPGQSPQLLIYWASTRESGVPDRFSGSGSGTDFTLKISRVEAEDVGVYYCQQYYSYPYTFGGGTKVEIKRTVAAPSVFIFPPSDEQLKSGTASVVCLLNNFYPREAKVQWKVDNALQSGNSQESVTEQDSKDSTYSLSSTLTLSKADYEKHKVYACEVTHQGLSSPVTKSFNRGEC
B2: CD98 (CL-huAb110)-TX (conjugate)
heavy: EVQLVQSGAEVKKPGASVKVSCKASGFTFSDYTMAWVRQAPGQGLEWVATIIYDARGTYYRDAVKGRFTITRDNSTSTLYLELSSLRSEDTAVYYCARQSDDTYYYWGYFDYWGQGTMVTVSSASTKGPSVFPLAPSSKSTSGGTAALGCLVKDYFPEPVTVSWNSGALTSGVHTFPAVLQSSGLYSLSSVVTVPSSSLGTQTYICNVNHKPSNTKVDKKV[omitted - human IgG1 Fc with changes]
light: B1 light with S22N, Y31F, S33G, E61Q, V91I, Y100S, G106Q, V110L
B3: CD98 (CL-huAb102)-TV (conjugate)
heavy: EVQLVESGGGLVQPGGSLRLSCATSGFTFIDYYMSWVRQAPGKGLEWLGFIRNKANRYTTEYSASVKGRFTISRDNSKSILYLQMNSLKTEDTAVYYCTRDRPAWFVYWGQGTLVTVSSASTKGPSVFPLAPSSKSTSGGTAALGCLVKDYFPEPVTVSWNSGALTSGVHTFPAVLQSSGLYSLSSVVTVPSSSLGTQTYICNVNHKPSNTKVDKKV[omitted - human IgG1 Fc with changes]
light: B1 light
B4: CD98 (CL-huAb104)-TV (conjugate)
heavy: EVQLVESGGGLVQPGGSLRLSCATSGFTFIDYYMSWVRQAPGKGLEWLGFIRNKAYGYTTEYSASVKGRFTISRDNSKSILYLQMNSLKTEDTAVYYCTRDRPAWFVYWGQGTLVTVSSASTKGPSVFPLAPSSKSTSGGTAALGCLVKDYFPEPVTVSWNSGALTSGVHTFPAVLQSSGLYSLSSVVTVPSSSLGTQTYICNVNHKPSNTKVDKKV[omitted - human IgG1 Fc with changes]
light: B1 light
B5: CD98 (CL-huAb108)-TV (conjugate)
heavy: EVQLVQSGAEVKKPGASVKVSCKASGFTFSDYTMAWVRQAPGQGLEWVATIIYSGRGTYYRDAVKGRFTITRDNSTSTLYLELSSLRSEDTAVYYCARQSDDTYYYWGYFDYWGQGTMVTVSSASTKGPSVFPLAPSSKSTSGGTAALGCLVKDYFPEPVTVSWNSGALTSGVHTFPAVLQSSGLYSLSSVVTVPSSSLGTQTYICNVNHKPSNTKVDKKV[omitted - human IgG1 Fc with changes]
light: B1 light with S22N, Y31F, S33G, E61Q, V91I, S99D, Y100V, G106Q, V110L
B6: CD98 (CL-huAb110)-TV (conjugate)
heavy: EVQLVQSGAEVKKPGASVKVSCKASGFTFSDYTMAWVRQAPGQGLEWVATIIYDARGTYYRDAVKGRFTITRDNSTSTLYLELSSLRSEDTAVYYCARQSDDTYYYWGYFDYWGQGTMVTVSSASTKGPSVFPLAPSSKSTSGGTAALGCLVKDYFPEPVTVSWNSGALTSGVHTFPAVLQSSGLYSLSSVVTVPSSSLGTQTYICNVNHKPSNTKVDKKV[omitted - human IgG1 Fc with changes]
light: B1 light with S22N, Y31F, S33G, E61Q, V91I, Y100S, G106Q, V110L
B7: CD98 (CL-huAb102)-YY (conjugate)
heavy: EVQLVESGGGLVQPGGSLRLSCATSGFTFIDYYMSWVRQAPGKGLEWLGFIRNKANRYTTEYSASVKGRFTISRDNSKSILYLQMNSLKTEDTAVYYCTRDRPAWFVYWGQGTLVTVSSASTKGPSVFPLAPSSKSTSGGTAALGCLVKDYFPEPVTVSWNSGALTSGVHTFPAVLQSSGLYSLSSVVTVPSSSLGTQTYICNVNHKPSNTKVDKKV[omitted - human IgG1 Fc with changes]
light: B1 light
B8: CD98 (CL-huAb104)-YY (conjugate)
heavy: EVQLVESGGGLVQPGGSLRLSCATSGFTFIDYYMSWVRQAPGKGLEWLGFIRNKAYGYTTEYSASVKGRFTISRDNSKSILYLQMNSLKTEDTAVYYCTRDRPAWFVYWGQGTLVTVSSASTKGPSVFPLAPSSKSTSGGTAALGCLVKDYFPEPVTVSWNSGALTSGVHTFPAVLQSSGLYSLSSVVTVPSSSLGTQTYICNVNHKPSNTKVDKKV[omitted - human IgG1 Fc with changes]
light: B1 light
B9: CD98 (CL-huAb108)-YY (conjugate)
heavy: EVQLVQSGAEVKKPGASVKVSCKASGFTFSDYTMAWVRQAPGQGLEWVATIIYSGRGTYYRDAVKGRFTITRDNSTSTLYLELSSLRSEDTAVYYCARQSDDTYYYWGYFDYWGQGTMVTVSSASTKGPSVFPLAPSSKSTSGGTAALGCLVKDYFPEPVTVSWNSGALTSGVHTFPAVLQSSGLYSLSSVVTVPSSSLGTQTYICNVNHKPSNTKVDKKV[omitted - human IgG1 Fc with changes]
light: B1 light with S22N, Y31F, S33G, E61Q, V91I, S99D, Y100V, G106Q, V110L
B10: CD98 (CL-huAb110)-YY (conjugate)
heavy: EVQLVQSGAEVKKPGASVKVSCKASGFTFSDYTMAWVRQAPGQGLEWVATIIYDARGTYYRDAVKGRFTITRDNSTSTLYLELSSLRSEDTAVYYCARQSDDTYYYWGYFDYWGQGTMVTVSSASTKGPSVFPLAPSSKSTSGGTAALGCLVKDYFPEPVTVSWNSGALTSGVHTFPAVLQSSGLYSLSSVVTVPSSSLGTQTYICNVNHKPSNTKVDKKV[omitted - human IgG1 Fc with changes]
light: B1 light with S22N, Y31F, S33G, E61Q, V91I, Y100S, G106Q, V110L
B11: CD98 (CL-huAb110)-AAA (conjugate)
heavy: EVQLVQSGAEVKKPGASVKVSCKASGFTFSDYTMAWVRQAPGQGLEWVATIIYDARGTYYRDAVKGRFTITRDNSTSTLYLELSSLRSEDTAVYYCARQSDDTYYYWGYFDYWGQGTMVTVSSASTKGPSVFPLAPSSKSTSGGTAALGCLVKDYFPEPVTVSWNSGALTSGVHTFPAVLQSSGLYSLSSVVTVPSSSLGTQTYICNVNHKPSNTKVDKKV[omitted - human IgG1 Fc with changes]
light: B1 light with S22N, Y31F, S33G, E61Q, V91I, Y100S, G106Q, V110L
B12: CD98 (CL-huAb102)-AAD (conjugate)
heavy: EVQLVESGGGLVQPGGSLRLSCATSGFTFIDYYMSWVRQAPGKGLEWLGFIRNKANRYTTEYSASVKGRFTISRDNSKSILYLQMNSLKTEDTAVYYCTRDRPAWFVYWGQGTLVTVSSASTKGPSVFPLAPSSKSTSGGTAALGCLVKDYFPEPVTVSWNSGALTSGVHTFPAVLQSSGLYSLSSVVTVPSSSLGTQTYICNVNHKPSNTKVDKKV[omitted - human IgG1 Fc with changes]
light: B1 light
modifications: non-natural residues
B13: CD98 (CL-huAb104)-AAD (conjugate)
heavy: EVQLVESGGGLVQPGGSLRLSCATSGFTFIDYYMSWVRQAPGKGLEWLGFIRNKAYGYTTEYSASVKGRFTISRDNSKSILYLQMNSLKTEDTAVYYCTRDRPAWFVYWGQGTLVTVSSASTKGPSVFPLAPSSKSTSGGTAALGCLVKDYFPEPVTVSWNSGALTSGVHTFPAVLQSSGLYSLSSVVTVPSSSLGTQTYICNVNHKPSNTKVDKKV[omitted - human IgG1 Fc with changes]
light: B1 light
modifications: non-natural residues
B14: CD98 (CL-huAb108)-AAD (conjugate)
heavy: EVQLVQSGAEVKKPGASVKVSCKASGFTFSDYTMAWVRQAPGQGLEWVATIIYSGRGTYYRDAVKGRFTITRDNSTSTLYLELSSLRSEDTAVYYCARQSDDTYYYWGYFDYWGQGTMVTVSSASTKGPSVFPLAPSSKSTSGGTAALGCLVKDYFPEPVTVSWNSGALTSGVHTFPAVLQSSGLYSLSSVVTVPSSSLGTQTYICNVNHKPSNTKVDKKV[omitted - human IgG1 Fc with changes]
light: B1 light with S22N, Y31F, S33G, E61Q, V91I, S99D, Y100V, G106Q, V110L
modifications: non-natural residues
B15: CD98 (CL-huAb110)-AAD (conjugate)
heavy: EVQLVQSGAEVKKPGASVKVSCKASGFTFSDYTMAWVRQAPGQGLEWVATIIYDARGTYYRDAVKGRFTITRDNSTSTLYLELSSLRSEDTAVYYCARQSDDTYYYWGYFDYWGQGTMVTVSSASTKGPSVFPLAPSSKSTSGGTAALGCLVKDYFPEPVTVSWNSGALTSGVHTFPAVLQSSGLYSLSSVVTVPSSSLGTQTYICNVNHKPSNTKVDKKV[omitted - human IgG1 Fc with changes]
light: B1 light with S22N, Y31F, S33G, E61Q, V91I, Y100S, G106Q, V110L
modifications: non-natural residues
B16: CD98 (CL-huAb102)-LB (conjugate)
heavy: EVQLVESGGGLVQPGGSLRLSCATSGFTFIDYYMSWVRQAPGKGLEWLGFIRNKANRYTTEYSASVKGRFTISRDNSKSILYLQMNSLKTEDTAVYYCTRDRPAWFVYWGQGTLVTVSSASTKGPSVFPLAPSSKSTSGGTAALGCLVKDYFPEPVTVSWNSGALTSGVHTFPAVLQSSGLYSLSSVVTVPSSSLGTQTYICNVNHKPSNTKVDKKV[omitted - human IgG1 Fc with changes]
light: B1 light
B17: CD98 (CL-huAb104)-LB (conjugate)
heavy: EVQLVESGGGLVQPGGSLRLSCATSGFTFIDYYMSWVRQAPGKGLEWLGFIRNKAYGYTTEYSASVKGRFTISRDNSKSILYLQMNSLKTEDTAVYYCTRDRPAWFVYWGQGTLVTVSSASTKGPSVFPLAPSSKSTSGGTAALGCLVKDYFPEPVTVSWNSGALTSGVHTFPAVLQSSGLYSLSSVVTVPSSSLGTQTYICNVNHKPSNTKVDKKV[omitted - human IgG1 Fc with changes]
light: B1 light
B18: CD98 (CL-huAb110)-LB (conjugate)
heavy: EVQLVQSGAEVKKPGASVKVSCKASGFTFSDYTMAWVRQAPGQGLEWVATIIYDARGTYYRDAVKGRFTITRDNSTSTLYLELSSLRSEDTAVYYCARQSDDTYYYWGYFDYWGQGTMVTVSSASTKGPSVFPLAPSSKSTSGGTAALGCLVKDYFPEPVTVSWNSGALTSGVHTFPAVLQSSGLYSLSSVVTVPSSSLGTQTYICNVNHKPSNTKVDKKV[omitted - human IgG1 Fc with changes]
light: B1 light with S22N, Y31F, S33G, E61Q, V91I, Y100S, G106Q, V110L
B19: CD98 (CL-huAb104)-WD (conjugate)
heavy: EVQLVESGGGLVQPGGSLRLSCATSGFTFIDYYMSWVRQAPGKGLEWLGFIRNKAYGYTTEYSASVKGRFTISRDNSKSILYLQMNSLKTEDTAVYYCTRDRPAWFVYWGQGTLVTVSSASTKGPSVFPLAPSSKSTSGGTAALGCLVKDYFPEPVTVSWNSGALTSGVHTFPAVLQSSGLYSLSSVVTVPSSSLGTQTYICNVNHKPSNTKVDKKV[omitted - human IgG1 Fc with changes]
light: B1 light

test: DAR determination by LC-MS; conditions: ADCs of Table 27
Procedure: LC-MS analysis was performed using an Agilent 1100 HPLC system interfaced to an Agilent LC/MSD TOF 6220 ESI mass spectrometer. The ADC was reduced with 5 mM (final concentration) BOND-BREAKER TCEP solution (Thermo Scientific, Rockford, Ill.), loaded onto a Protein Microtrap (Michrom Bioresorces, Auburn, Calif.) desalting cartridge, and eluted with a gradient of 10% B to 75% B in 0.2 minutes at ambient temperature. Mobile phase A was H2O with 0.1% formic acid (FA), mobile phase B was acetonitrile with 0.1% FA, and the flow rate was 0.2 ml/min. Electrospray-ionization time-of-flight mass spectra of the co-eluting light and heavy chains were acquired using Agilent MassHunter™ acquisition software. The extracted intensity vs. m/z spectrum was deconvoluted using the Maximum Entropy feature of MassHunter software to determine the mass of each reduced antibody fragment. DAR was calculated from the deconvoluted spectrum by summing intensities of the naked and modified peaks for the light chain and heavy chain, normalized by multiplying intensity by the number of drugs attached. The summed, normalized intensities were divided by the sum of the intensities, and the summing results for two light chains and two heavy chains produced a final average DAR value for the full ADC.

| Molecule | DAR by MS |
| --- | --- |
| B1 | 2.6 |
| B2 | 2.0 |
| B3 | 3.9 |
| B4 | 4.1 |
| B5 | 3.3 |
| B6 | 3.0 |
| B7 | 3.4 |
| B8 | 2.1 |
| B9 | 1.8 |
| B10 | 1.9 |
| B11 | 1.0 |
| B12 | 3.0 |
| B13 | 3.0 |
| B14 | 2.6 |
| B15 | 3.2 |
| B16 | 2 |
| B17 | 2.2 |
| B18 | 2.1 |

test: Size exclusion chromatography, % aggregate fraction of ADC; type: physicochemical; conditions: ADCs of Table 27
Procedure: Size exclusion chromatography was performed using a Shodex KW802.5 column in 0.2M potassium phosphate pH 6.2 with 0.25 mM potassium chloride and 15% IPA at a flow rate of 0.75 ml/min. The peak area absorbance at 280 nm was determined for each of the high molecular weight and monomeric eluents by integration of the area under the curve. The % aggregate fraction of the conjugate sample was determined by dividing the peak area absorbance at 280 nm for the high molecular weight eluent by the sum of the peak area absorbances at […] of the high molecular weight and monomeric eluents multiplied by 100%.

| Molecule | % agg by SEC |
| --- | --- |
| B1 | 0.7% |
| B2 | 2.4% |
| B3 | 1.7% |
| B4 | 2.6% |
| B5 | 1.6% |
| B6 | 2% |
| B7 | 6.4% |
| B8 | 12.6% |
| B9 | 15.5% |
| B10 | 15.4% |
| B11 | 15.2% |
| B12 | 1.3% |
| B13 | 2.3% |
| B14 | 3.3% |
| B15 | 2.9% |
| B16 | 4.5% |
| B17 | 13.6% |
| B18 | 18% |
| B19 | 0% |
